This is an account of results in the supplement of paper PMC11417369.

Some of the results follow.

The subject of this assay is PfAP2-HC AP2 domain (GST-tagged). The assay can be described thus: gcPBM binding intensity (ln(normalized median fluorescence intensity)); higher = stronger DNA binding. The procedure, abridged: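 After 1 h on an Agilent 4 × 180k array of primer-extended double-stranded 36-bp intergenic genomic probes and negative controls, bound GST-tagged P. falciparum DNA-binding domains were detected with Alexa488 anti-GST antibody and scanned at 488 nm. The domains had been expressed in E. coli, and binding took place in 1× PBS with 1% milk, 0.2 mg/ml BSA, 0.5% salmon testes DNA and 0.03% Triton X-100. Binding intensity is the highest Masliner-normalised natural-log median intensity across replicate spots of either probe orientation.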
For the sequence “TAATATGCTCATGTAACACACATTTGCATATTTTTC [CACACA_site1357]”, the “gcPBM binding intensity (ln)” value stood at 9.96.
Regarding “GTGCAAAATATTTTTACACACAAATTCTTACAACAG [CACACA_site7556]”, the “gcPBM binding intensity (ln)” value is 10.
On to “ATATCTATGTTTATCTCGAATAACTTAAAAAATTAT [CACACA_negctrl_site1131]”, for which the “gcPBM binding intensity (ln)” value is 9.58.
On to “CATACAGACATACATACACACATACATACAGACATA [CACACA_site6996]”, for which the “gcPBM binding intensity (ln)” value turned out to be 10.5.
The same measure for “TGTAAATATATATATACACACACACCGAAGCAATAG [CACACA_site8960]”: 10.2; for “TTTTTTTTTTTTTAAACATGCATATTAATATTATAT [TGCATGCA_site820]”: 9.53; for “GTATATCACACATTTGCATGTTGTCAATAGTTTATC [TGCATGCA_site134]”: 9.9.
The same measure for “TAAAAAGGAAGACACACACACACATATATAAATATA [CACACA_site7657]”: 10.6.
In the case of “TATATACACATATATAAACACACAAAAAAAAAAAAA [CACACA_site8626]”, the “gcPBM binding intensity (ln)” value is 9.82.
The same measure for “ATACAAATTGTTTAAAGTACAAATTACACCTCTTAA [XGTACX_site6888]”: 9.69; for “GTATTACAACGACACACACACCTATATATCATAGTA [CACACA_site7877]”: 10.5.
The same measure for “ACATTAAAAAAAAAATGTACATAAATATTTTTCCTT [XGTACX_site4361]”: 9.51.
Next, “ATCTTTTATATAAAATGTACAGAGTTTGAAAGAATA [XGTACX_site8826]”: 9.39; “AATTTTATTCATTGAGCACACAAAATAAATTATCAA [CACACA_site9079]”: 9.49.
As for “GCTTAATGTCATATATCACACATGAAAATATATATA [CACACA_site5089]”, the “gcPBM binding intensity (ln)” value is 9.61.
“TAAATATATTAATACACACACGATATGTACAAAAAA [CACACA_site540]”: the “gcPBM binding intensity (ln)” value was determined as 10.1.
Regarding “TATATATATATATAATGTACATATAATATATTTATT [XGTACX_site7892]”, the “gcPBM binding intensity (ln)” value amounted to 9.54.
On to “TGCATATACGCAAGCACACATATATATATATATATA [CACACA_site1069]”, for which the “gcPBM binding intensity (ln)” value came out at 9.6.
For “TTTTGATTTCCTATTGCACACTTTTTTTAAGTTTAT [CACACA_site1056]”, the “gcPBM binding intensity (ln)” value was 9.94.
Next, “ACAGCTACCAGATACTGTACTTTTCTCCAGACTGCA [XGTACX_site2541]”: 9.5; “AATTTATAATTATAGAGTACATATTTTTAATATATA [XGTACX_site2566]”: 9.42; “ATATACACTTAATTTTTTATAAAAAAAAATTTATAT [CACACA_negctrl_site498]”: 9.34.
Next, “GTAATAATTTTTTGTAGTACACAAAAATTCATATTT [XGTACX_site2699]”: 9.7; “ATGTGATATAAGTACACACACATATGTATTTATAAC [CACACA_site6942]”: 10.
The same measure for “TATATTTTGTTCTTTCCACACACAAATACATATATT [CACACA_site9348]”: 10.1; for “ATATACATAATCTTCTTGCACTTTTTTTTTTTTTTT [GTGCAC_site9410]”: 9.76.
As to “ATTAATTTTAATAAAGGTACACGTAGTTTTTTATTA [XGTACX_site7868]”, the “gcPBM binding intensity (ln)” value was 9.42.
Next, “TTAAAATTAAAAATGCGTACACATATACATAAAAAA [XGTACX_site1915]”: 9.81; “AACAAAACCTTATATGTACACACATATACATCACAC [CACACA_site9037]”: 10.3.
The same measure for “TATATATATATATATTGTACTGAACGTTTTTTTTTG [XGTACX_site8060]”: 9.92.
The same measure for “TATATAATATATATATGTACATATATATATGTTTTT [XGTACX_site3347]”: 9.62.
Consider “TATACATAAAACAGTTCACACATTGTATGAATATAT [CACACA_site4751]”, for which the “gcPBM binding intensity (ln)” value is 9.87.
The same measure for “TACAAACACCCATATACACACAAAAAAAAAATAAAA [CACACA_site5421]”: 9.94; for “AGAAAAACTTATATGATACACACGATAAACAAAATA [CACACA_site1038]”: 9.79; for “GGCAATACATAATAATGTACATAATTATATAATATT [XGTACX_site3739]”: 9.61.
Next, “TATATCTGTTTATATTGTACACATATATATATATAT [XGTACX_site714]”: 9.92; “GGACAACAAACAAACACACACAAAAAAAAAATAAAA [CACACA_site3791]”: 11.
Next, “AATTTTTCAAATTAATGTACTTGTTATAAATTGTAA [XGTACX_site5428]”: 9.41.
Turning to “TTGTTTCTTTTTTTTTGTACATATATATTGTATATT [XGTACX_site7602]”, the “gcPBM binding intensity (ln)” value was 9.89.
The same measure for “TACGTATTTTAATATTTACACACTTATTTTTTATAT [CACACA_site7924]”: 9.93.
Consider AGGTAAAAATGGTAAGTGCATTAATGATAAAAAATG, for which the “gcPBM binding intensity (ln)” value was 10.1.
Next, “GAATATTCACATACTTGTACATATATATATATATAT [XGTACX_site7302]”: 9.84; “TAATAATAGTACTGACATCGAAATATTATTAAAAAT [CACACA_negctrl_site255]”: 9.6; “TGGCAAAATAGGCACACACACATATACCTATAGATT [CACACA_site7168]”: 10.3.
The same measure for “GTAAATATATAAACATGTACATATATAAATATATAA [XGTACX_site7262]”: 9.83; for “ATATTTTGGGGACTTTTTAAAAAAGAAGTATTAAAA [CACACA_negctrl_site1228]”: 9.36.
Regarding “CAAAAAAAATAAAACACACACACAAAAAAATAAAAA [CACACA_site466]”, the “gcPBM binding intensity (ln)” value stood at 10.7.
The same measure for “GTTTACATAGATAACTGTACGCAATGATATTAGACA [XGTACX_site1320]”: 9.5; for “TATAAGAATAAAAAGGGTACATAAAATAATAATATA [XGTACX_site2355]”: 9.74; for “GATAATTTTTTTCTCACACACAAATATTTTAATCAT [CACACA_site3666]”: 9.97.
Next, “AAATATATTATATCATATATTAAAGCATATATTAAA [CACACA_negctrl_site1624]”: 9.49; “TTCTTTTTATTTATATTTTCCCCTCTCTATAGCTAT [XGTACX_negctrl_site102]”: 9.62.
Next, “CAAAATAATAATAAAAGTACTAACATATTTATGAAA [XGTACX_site6078]”: 9.8; “ATAATTCAAAAAAACACACAAATTACAAAATAAACT [CACACA_site6264]”: 9.92.
For the sequence “ATATTTCTGTGTGGATGTACATTATTAGCAGGCTTT [XGTACX_site6496]”, the “gcPBM binding intensity (ln)” value turned out to be 9.65.
The same measure for “AAAATATATACACAAACATGCATATAATAAATAAAT [TGCATGCA_site711]”: 9.99.
The same measure for “CATTATGTCGTAAATACACACATACCTATACATACA [CACACA_site6763]”: 9.9.
